Measurements: PubChem BioAssay AID330 (DTP/NCI, 2004)
Inconclusive results and toxic doses are left out. Certain results were filed several times, with different values. Only these are listed. An entry can have further records. Values that stand side by side are repeats in other runs, samples, wells, individuals or studies. Brackets with × give the number of equal values in this list.

System: P388 leukemia ip, CD2F1 mice, survival T/C
Test: NCI In Vivo Anticancer Drug Screen. Data for tumor model P388 Leukemia (intraperitoneal) in CD2F1 (CDF1) mice
Details: endpoint: median survival time, higher = longer survival
[1] = dose: 0.12 mg/kg/injection, schedule: Q01DX009 (ip), vehicle: water
[2] = dose: 0.5 mg/kg/injection, schedule: Q01DX009 (ip), vehicle: water
[3] = dose: 50.0 mg/kg/injection, schedule: Q01DX005 (ip), vehicle: Klucel (hydroxypropylcellulose) (HPC)

`CCC1(O)CC2CN(CCc3c([nH]c4ccccc34)C(C(=O)OC)(c3cc4c(cc3OC)N(C)C3C(O)(C(N)=O)C(O)C5(CC)C=CCN6CCC43C65)C2)C1` (centres undefined) (tested in a mixture with another compound) was tested, and the T/C [1] was 107 % of control and 158 % of control, the T/C (dose: 0.25 mg/kg/injection, schedule: Q01DX009 (ip), vehicle: water) was 116 % of control and 167 % of control and the T/C [2] was 107 % of control and 172 % of control.

For `CN(CCO)c1ccc([N+](=O)[O-])c2nonc12`, the T/C (dose: 200.0 mg/kg/injection, schedule: Q04DX002 (ip), vehicle: saline) was 100 % of control (2×) and 154 % of control.

For `[C-]#[N+]C1CCCCC1.[C-]#[N+]C1CCCCC1.[C-]#[N+]C1CCCCC1.[C-]#[N+]C1CCCCC1.[C-]#[N+]C1CCCCC1.[C-]#[N+]C1CCCCC1.[Mn]`, the T/C (dose: 1.5 mg/kg/injection, schedule: Q01DX009 (ip), vehicle: saline with Tween-80) was 94 % of control and 176 % of control.

In the case of `C=C(C)C(=O)N(C)C(C)C(=O)OC1CC(=O)N(C)c2cc(cc(OC)c2Cl)C(OC)C(C)=C/C=C/C(OC)C2(O)CC(OC(=O)N2)C(C)C2OC12C` (centres undefined), the T/C (dose: 4.0 micrograms/kg/injection, schedule: Q01DX009 (ip), vehicle: saline) is reported as 120 % of control and 163 % of control and the T/C (dose: 16.0 micrograms/kg/injection, schedule: Q01DX009 (ip), vehicle: saline) is reported as 120 % of control and 163 % of control.

`O=CNC(Cc1ccc(O)cc1)C(=O)O` (centres undefined) was tested, and the T/C [3] was 102 % of control, 105 % of control, 152 % of control.

With `CC1(C)N=C(N)N=C(N)N1c1cccc(CCC(=O)Nc2ccc(S(=O)(=O)F)cc2)c1` the T/C (dose: 75.0 mg/kg/injection, schedule: Q01DX009 (ip), vehicle: saline with Tween-80) was 123 % of control and 179 % of control.

For `OC(CCl)CN1CCN(CC(O)CCl)CC1` (centres undefined), the T/C (dose: 50.0 mg/kg/injection, schedule: Q01DX005 (ip), vehicle: water) was 96 % of control and 179 % of control.

In the case of `CCC1=C[C@H]2CN(CCc3c([nH]c4ccccc34)[C@@](C(=O)OC)(c3cc4c(cc3OC)N(C)[C@H]3[C@@](O)(C(=O)NC)[C@H](OC(C)=O)[C@]5(CC)C=CCN6CC[C@]43[C@@H]65)C2)C1`, the T/C [1] is reported as 123 % of control, 169 % of control, 178 % of control and the T/C [2] is reported as 100 % of control and 169 % of control.

`C[n+]1c(-c2cccc(OCCOCCOc3cccc(-c4c5cc(N)ccc5c5ccc(N)cc5[n+]4C)c3)c2)c2cc(N)ccc2c2ccc(N)cc21` was tested, and the T/C (dose: 0.78 mg/kg/injection, schedule: Q01DX009 (ip), vehicle: water) was 114 % of control and 151 % of control.

With `C[CH2][Sn]([F])([CH2]C)[CH2]C` the T/C (dose: 3.0 mg/kg/injection, schedule: Q01DX009 (ip), vehicle: saline with Tween-80) was 107 % of control and 164 % of control.

In the case of `CCC1=C[C@H]2CN(CCc3c([nH]c4ccccc34)[C@@](C(=O)OC)(c3cc4c(cc3OC)N(C)[C@H]3[C@@](O)(C(=O)OC)[C@H](OC(C)=O)[C@]5(CC)C=CCN6CC[C@]43[C@@H]65)C2)C1`, the T/C (dose: 4.0 mg/kg/injection, schedule: Q01DX009 (ip), vehicle: water) is reported as 88 % of control and 163 % of control.

In the case of `CCN(CC)Cc1cc(N=Nc2cc(OC)c(N=Nc3ccc([N+](=O)[O-])cc3)cc2OC)c2ccccc2c1O`, the T/C (dose: 200.0 mg/kg/injection, schedule: Q01DX009 (ip), vehicle: Klucel (hydroxypropylcellulose) (HPC)) is reported as 98 % of control, 100 % of control, 162 % of control.

In the case of `CN(C)CCNc1ccc(CO)c2sc3ccccc3c(=O)c12`, the T/C (dose: 100.0 mg/kg/injection, schedule: Q01DX005 (ip), vehicle: saline with Tween-80) is reported as 109 % of control and 150 % of control.

`CN1NC(c2ccccc2)=C(C#N)C(=O)CC1c1ccc(Cl)cc1` (centres undefined) was tested, and the T/C (dose: 30.0 mg/kg/injection, schedule: Q01DX005 (ip), vehicle: saline with Tween-80) was 97 % of control and 163 % of control.

In the case of `O=C1c2ccccc2C(=O)c2c(NCCNCCO)ccc(NCCNCCO)c21`, the T/C (dose: 30.0 mg/kg/injection, schedule: Q01DX009 (ip), vehicle: saline) is reported as 109 % of control and 198 % of control.

In the case of `O=NNc1ccc(-c2ccccc2)cn1`, the T/C (dose: 3.12 mg/kg/injection, schedule: Q01DX009 (ip), vehicle: saline) is reported as 119 % of control and 161 % of control.

With `CCC1=C[C@H]2CN(CCc3c([nH]c4ccccc34)[C@@](C(=O)OC)(c3cc4c(cc3OC)N(C=O)[C@H]3[C@@](O)(C(=O)OC)[C@H](OC(C)=O)[C@]5(CC)C=CCN6CC[C@]43[C@@H]65)C2)C1` the T/C (dose: 1.0 mg/kg/injection, schedule: Q01DX001 (ip), vehicle: water) was 115 % of control and 159 % of control.

`CC(C)Sc1nc(NC(=O)N(CCCl)N=O)cc(=O)[nH]1` was tested, and the T/C [3] was 105 % of control and 158 % of control.

`CC1CN=C(CCc2ccc(NC(=O)c3ccc(C(=O)Nc4ccc(CCC5=NCC(C)N5)cc4)cc3)cc2)N1` (centres undefined) was tested, and the T/C [3] was 114 % of control and 150 % of control (2×) and the T/C (dose: 200.0 mg/kg/injection, schedule: Q01DX005 (ip), vehicle: Klucel (hydroxypropylcellulose) (HPC)) was 97 % of control and 178 % of control.
